In PubChem BioAssay AID1671194 (National Center for Advancing Translational Sciences (NCATS), 2021):
The whole screen tested about 140,000 compounds, of which about 240 (0.17%) were called active. This list was built around the results that the source calls inconclusive (neither active nor inactive); the mix of calls is not that of the screen. The call rests on the fitted dose curve; in most records, active means well fitted inhibition curve with a large enough effect; inconclusive means small, poorly fitted or top-dose-only effect; inactive means no such curve, though single readings can be large or run the other way. A potency beside an inconclusive call is a rough fit, not a confirmed value.
Potency means the concentration at half of the fitted maximal effect; tags describe the fitted curve by direction and shape.

Test: Primary qHTS assay for inhibitors of alpha-synuclein gene (SNCA) expression; further: nearly all actives have a fitted effect of over 45% in size;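 on activity change, negative = inhibition: plate controls were DMSO cells for no effect and cell-free wells for full effect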
Settings: HEK-293 SNCA-luciferase knock-in, luminescence, 24 h; activity change, negative = inhibition: at 57.2 µM (top of the series) unless noted
In the case of CCCCS(=O)(=O)N1C[C@@H](C(N)=O)[C@H](C2CCN(C)CC2)C1, the Potency is reported as inconclusive: 3.16 µM [inhibitor, single point].
With O=S(=O)(NCC(c1ccco1)N1CCN(c2ccc(F)cc2)CC1)c1ccccc1 (stereo not drawn) the Potency was inconclusive: 39.8 µM [inhibitor, single point].
In the case of COCCn1nnnc1C1CC2(CCOCC2)C(=O)N1Cc1cccc(C)c1 (stereo not drawn), the Potency is reported as inconclusive: 7.08 µM [inhibitor, single point].
For COc1ccc(Nc2ccnc(N3CCN(C(=O)c4cccc(Cl)c4)CC3)n2)cc1, the Potency was inconclusive: 39.8 µM [inhibitor, single point].
In the case of O=C(Cc1ccncc1)N1CCC2(CC1)NCCc1c2[nH]c2ccccc12, the Potency is reported as inconclusive: 39.8 µM [inhibitor, single point].
For Cc1ncc2n1C(=O)N(C1CCN(Cc3ccc(F)cc3)CC1)C2, the Potency was inconclusive: 7.94 µM [inhibitor, full curve, poor fit].
In the case of O=C(NCc1cccs1)C1CCCN1c1nc2ncccc2o1 (stereo not drawn), the “activity change, negative = inhibition” value is reported as inactive: 22.8% [at 87.6 µM].
For c1ccc(C(c2cccs2)c2c[nH]c3ccccc23)cc1 (stereo not drawn), the Potency was inconclusive: 20 µM [inhibitor, single point].
In the case of COc1cccc(CC(=O)N2CC(Oc3ccc(-c4noc(-c5ccncc5)n4)cc3)C2)c1, the Potency is reported as inconclusive: 4.47 µM [inhibitor, full curve, poor fit].
In the case of Cc1ccc(CNc2ncnc3c2c(-c2ccccc2)cn3-c2cccc(Cl)c2)cc1, the Potency is reported as inconclusive: 39.8 µM [inhibitor, single point].
For Cc1ccc(-c2noc(CN(C3CCCCC3)S(=O)(=O)c3ccc(Cl)cc3)n2)cc1, the Potency was inconclusive: 0.316 µM [inhibitor, full curve].
With CC(C)(C)OC(=O)N1CCC(c2c(C(=O)N3CCc4ccccc4C3)cnn2-c2ccc(Cl)cc2)CC1 the Potency was inconclusive: 39.8 µM [inhibitor, single point].
With COCC(=O)N[C@@H]1CN(C(=O)c2ccc(OC)cc2OC)CC[C@@H]1CO the Potency was inconclusive: 39.8 µM [inhibitor, single point].
In the case of O=C(CCC1CCN(C(=O)[C@H]2C[C@@H]3C=C[C@H]2C3)CC1)N1CCC(Cc2ccccc2)CC1, the “activity change, negative = inhibition” value is reported as inactive: -9.52%.
With COc1ccc(C(=O)N[C@H]2C[C@H]3C(=O)Nc4ccccc4C(=O)N3C2)cc1 the “activity change, negative = inhibition” value was inactive: -7.37% [at 87.6 µM].
With Cc1nc(CN2C[C@H](C(=O)NCc3ccc4c(c3)OCO4)C[C@@H]2c2ccc(F)cc2)cs1 the Potency was inconclusive: 39.8 µM [inhibitor, single point].
With COC(=O)CNC(=O)N1CCC(Cc2noc(-c3ccncc3)n2)C1 (stereo not drawn) the Potency was inconclusive: 4.47 µM [inhibitor, full curve, poor fit].
For COc1cccc(NC(=O)c2cnc3c(c2)N(C(=O)Cc2ccc(C(C)C)cc2)CCC3)c1, the Potency was inconclusive: 35.5 µM [inhibitor, partial curve, poor fit].
With Cc1ccccc1N1CCN(C2CCCN(C/C=C/c3ccc(F)cc3)C2)CC1 (stereo not drawn) the “activity change, negative = inhibition” value was inactive: 3.75%.
For COc1ccccc1Nc1ccnc(N2CCC[C@H]2C(=O)N2CCC(Cc3ccccc3)CC2)n1, the Potency was inconclusive: 20 µM [inhibitor, partial curve, poor fit].
With Cc1ccc(N2C(=O)C(CC(=O)Nc3ccc(F)cc3)N(CCC3=CCCCC3)C2=O)cc1 (stereo not drawn) the Potency was inconclusive: 17.8 µM [inhibitor, single point].
With CCCCN1CC(c2nc3ccccc3n2CCCCOc2ccccc2C)CC1=O (stereo not drawn) the Potency was inconclusive: 15.8 µM [inhibitor, single point].
In the case of Cc1cc(CNC(=O)C2(C(N)=O)CC2)c2[nH]c(-c3ccccc3)c(C)c2c1, the Potency is reported as inconclusive: 39.8 µM [inhibitor, single point].
In the case of O=C(c1ccc2c(c1)N(Cc1ccc(Cl)cc1)C(=O)c1ccccc1S2(=O)=O)N1CCCCCC1, the Potency is reported as inconclusive: 10 µM [inhibitor, partial curve, poor fit].
For CCC1(CC)CCN(C(=O)CC2COc3ccc(C(=O)N(C)C)cc3N2C)C1 (stereo not drawn), the “activity change, negative = inhibition” value was inactive: -26.2%.
In the case of CCC(=O)N(C1CCOCC1)C1CCN(S(=O)(=O)c2ccccc2F)CC1, the “activity change, negative = inhibition” value is reported as inactive: 4.75%.
For Cc1ccc2c(c1)N1C(=O)OC[C@@H]1CCN(C(=O)c1cc(C)on1)C2, the Potency was inconclusive: 12.6 µM [inhibitor, single point].
For Cc1cc2oc(C(=O)Nc3sc4c(c3C(=O)NCc3ccco3)CCC4)cc(=O)c2cc1C, the Potency was inconclusive: 20 µM [inhibitor, single point].
In the case of CCOCCOC1CCN(C(=O)c2cccc(F)c2)CC1, the Potency is reported as inconclusive: 25.1 µM [inhibitor, single point].
In the case of O=C(Nc1ccc(C(F)(F)F)cc1)c1cc(S(=O)(=O)NC2CCCCCC2)ccc1F, the Potency is reported as inconclusive: 39.8 µM [inhibitor, single point].
In the case of CCn1ncc(NC(=O)Cn2ncc3cc(-c4ccc(C(=O)N(C)C)cc4)ccc32)n1, the “activity change, negative = inhibition” value is reported as inactive: 23%.
In the case of CCOC(=O)c1c(C)[nH]c(C)c1S(=O)(=O)N1CCC(C(=O)N2CCN(c3cccc(C)c3)C(C)C2)CC1 (stereo not drawn), the Potency is reported as inconclusive: 0.158 µM [inhibitor, partial curve, poor fit].
In the case of COCCCNC(=O)Cn1c(=O)n(Cc2ccc(C(=O)NCc3ccc(C)cc3)cc2)c(=O)c2ccccc21, the Potency is reported as inconclusive: 2 µM [inhibitor, partial curve, poor fit].
For Cc1cccc(C(=O)N2CCC3(CC2)CC(N(C2CC2)S(C)(=O)=O)CCO3)c1 (stereo not drawn), the Potency was inconclusive: 39.8 µM [inhibitor, single point].
In the case of CSc1ccc(CNC(=O)CCn2ccc3cc(S(=O)(=O)N4CCC(C)CC4)ccc32)cc1, the Potency is reported as inconclusive: 20 µM [inhibitor, single point].
For CCC(Sc1nc2ccccc2c2nc(CCc3c(C)n[nH]c3C)nn12)C(=O)Nc1ccc(F)cc1 (stereo not drawn), the Potency was inconclusive: 6.31 µM [inhibitor, single point].
With CCOC(=O)c1[nH]c2ccccc2c1NC(=O)c1ccccc1OCC the Potency was inconclusive: 20 µM [inhibitor, partial curve, poor fit].
With COc1ccc(C(=O)N2CCC3(CC2)C(OC)CN3c2cccc(F)c2)cc1 (stereo not drawn) the Potency was inconclusive: 5.01 µM [inhibitor, partial curve].
